Laboratory results: patent publication US20150087723A1, “MICROBIAL COMPOSITION” (Rohm and Haas Company, priority 2011, published 2015)
Where “and” joins values, the source holds several entries; their conditions need not be identical. Equal entries are not always repeated. The name of at least one read-out is uncertain.

Test system: Escherichia coli (E. coli—ATCC #10536)
Experiment: Synergy test: high resolution MBC microtiter plate assay, phosphate buffer containing 35% dipropylene glycol, 15 seconds contact
Format: cell-based
Details: component alone (Qb = 0); E. coli 10536; complete kill in 15 seconds
Source text: One measure of synergy is -the industrially accepted method described by Kull, F. C.; Eisman, P. C.; Sylwestrowicz, H. D. and Mayer, R. L., in Applied Microbiology 9:538-541 (1961), using the ratio determined by the formula:
Qa/QA+Qb/QB=Synergy Index (“SI”)
wherein: QA=concentration of compound A (first component) in percent, acting alone, which produced an end point (MBC of Compound A). Qa =concentration of compound A in percent, in the mixture, which produced an end point. QB=concentration of compound B (second component) in percent, acting alone, which produced an end point (MBC of Compound B). Qb=concentration of compound B in percent, in the mixture, which produced an end point.
When the sum of Qa/QA and Qb/QB is greater than one, antagonism is indicated. […] The lower the SI, the greater is the synergy shown by that particular mixture. The minimum biocidal concentration (MBC) of a microbicide is the lowest concentration tested under a specific set of conditions that provides complete kill of the tested microorganisms.
Synergy tests were-conducted using standard microtiter plate assays with, phosphate buffer containing 35% dipropylene glycol (DPG). In this method, a wide range of combinations of chemicals was tested by conducting high resolution MBC assays of Component (A) in the presence of various concentrations of Component (B). High resolution MBCs were determined by adding varying amounts of microbicide to one column of a microtiter plate and doing subsequent ten-fold dilutions using an automated liquid handling system to obtain a series of closely spaced endpoints. The MBC plate was inoculated one column at a time with the test microorganism. An aliquot of the inoculated well was transferred at 15 seconds to a plate containing a neutralizing agent (D/E Neutralizing Broth), mixed and held for 5 minutes before being transferred to a growth plate containing trypticase soy broth (TSB). The TSB plate was incubated at 37° C. and read for the presence/absence of growth at 24 hours. The lowest level tested that provided complete kill (as evidenced by no growth in the microtitre plate) of the test organisms in 15 seconds is the minimum biocidal concentration (MBC).
The synergy of the combinations of the present invention was determined against a bacterium, Escherichia coli (E. coli—ATCC #10536), at a concentration of approximately 1×10^8 bacteria per mL. This microorganism is representative of natural contaminants in many consumer and industrial applications.

SMILES | Qa: MBC of the first component (A) acting alone (QA)
Cc1cc(O)ccc1C(C)C [4-isopropyl-3-methylphenol] | 0.6 weight % and 0.4 weight % and 0.3 weight %
CCCc1ccccc1O [2-n-propylphenol] | 0.6 weight % and 0.3 weight %
CC(C)(C)c1ccccc1O [2-tert-butylphenol] | 0.3 weight % and 0.2 weight %
Cc1cc(O)cc(C(C)C)c1 [3-isopropyl-5-methylphenol] | 0.3 weight % and 0.4 weight % and 0.5 weight %
CCCc1ccc(O)cc1 [4-propylphenol] | 0.3 weight % and 0.4 weight %
C/C=C/c1ccccc1O [(E)-2-(prop-1-enyl)phenol] | 0.8 weight % and 1.00 weight %
